This note sets out measurements from PMC4336329 (PLoS ONE, 2015).

Each structure is given as a SMILES string. In all, about 310,000 compounds went through this assay and about 2,200 (0.71%) showed an effect of 50% or more. The effect is printed as a negative number. The list shows a part of the results.

In the experiment the target is human ether-à-go-go-related gene (hERG) potassium channel (human, UniProt Q12809). Put plainly: primary screen, population patch clamp on CHO cells stably expressing hERG.
human ether-à-go-go-related gene (hERG) potassium channel, sequence (Q12809 whole entry, looked up): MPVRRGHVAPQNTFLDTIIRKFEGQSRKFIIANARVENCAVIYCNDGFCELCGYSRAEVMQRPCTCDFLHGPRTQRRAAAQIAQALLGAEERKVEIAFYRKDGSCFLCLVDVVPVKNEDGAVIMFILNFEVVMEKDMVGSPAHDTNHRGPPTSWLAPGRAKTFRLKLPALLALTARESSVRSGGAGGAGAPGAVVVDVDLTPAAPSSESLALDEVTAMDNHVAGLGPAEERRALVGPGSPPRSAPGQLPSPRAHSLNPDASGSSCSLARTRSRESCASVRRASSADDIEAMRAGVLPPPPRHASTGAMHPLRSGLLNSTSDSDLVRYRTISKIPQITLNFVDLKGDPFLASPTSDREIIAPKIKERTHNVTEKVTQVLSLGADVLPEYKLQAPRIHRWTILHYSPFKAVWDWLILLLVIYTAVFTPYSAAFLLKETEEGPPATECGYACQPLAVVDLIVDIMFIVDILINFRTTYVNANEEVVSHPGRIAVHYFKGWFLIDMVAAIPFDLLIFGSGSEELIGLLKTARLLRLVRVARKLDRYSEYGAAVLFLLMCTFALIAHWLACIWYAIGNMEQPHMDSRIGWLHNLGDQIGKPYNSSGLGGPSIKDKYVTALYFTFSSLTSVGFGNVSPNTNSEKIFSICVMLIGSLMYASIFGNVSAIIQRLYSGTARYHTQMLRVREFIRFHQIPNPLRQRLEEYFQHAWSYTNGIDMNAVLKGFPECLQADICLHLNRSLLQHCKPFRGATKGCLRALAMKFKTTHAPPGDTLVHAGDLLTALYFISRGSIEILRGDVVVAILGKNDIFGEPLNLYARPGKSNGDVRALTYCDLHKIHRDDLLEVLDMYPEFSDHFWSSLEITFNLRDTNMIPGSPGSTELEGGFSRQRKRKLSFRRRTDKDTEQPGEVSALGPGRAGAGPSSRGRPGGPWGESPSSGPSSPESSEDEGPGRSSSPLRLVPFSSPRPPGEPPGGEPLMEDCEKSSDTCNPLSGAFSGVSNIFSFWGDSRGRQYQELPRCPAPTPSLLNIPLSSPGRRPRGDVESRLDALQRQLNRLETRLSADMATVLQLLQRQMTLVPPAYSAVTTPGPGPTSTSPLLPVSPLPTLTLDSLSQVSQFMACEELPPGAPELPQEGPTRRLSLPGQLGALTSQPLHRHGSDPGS
For the compound `CCOC(=O)C(Cc1c(F)cccc1Cl)c1ccnc2nc(N)nn12` (centres unmarked), the “hERG current change (%, negative = inhibition) at 1uM” value amounted to 11%.
The same measure for `Brc1ccc(-c2cn3cccnc3n2)cc1`: 16.8%.
The same measure for `CCCCNC(=O)c1onc(CSc2cc(C)cc(C)c2)c1C(=O)O`: 11.7%; for `O=C(Nc1ccc(-c2noc(CCc3ccccc3)n2)cc1)c1cccnc1`: 1.14%; for `CC1=C(C#N)CCC(=O)N1Cc1ccc(C)cc1`: 9.78%.
The same measure for `CCc1ccc(/C(C)=N/NC(=O)CNC(=O)/C=C/c2ccco2)cc1`: 11.5%.
As for `CCc1ccc2nc(Nc3ncc(C(C)=O)c(C)n3)nc(C)c2c1`, the “hERG current change (%, negative = inhibition) at 1uM” value came to 12.4%.
The same measure for `COC(=O)c1ccccc1NC(=O)CSc1ccccn1`: 3.01%.
In the case of `O=C(CNS(=O)(=O)c1ccccc1Br)OCC(=O)N1CCc2ccccc21`, the “hERG current change (%, negative = inhibition) at 1uM” value was found to be 7.62%.
The same measure for `N/C(CCCN1CCCCC1)=N/O`: 11.2%.
The same measure for `Nc1c(N(Cc2ccco2)C(=O)COc2ccccc2F)c(=O)[nH]c(=O)n1Cc1ccccc1`: 8.5%; for `O=C(Cc1ccccc1)N/N=C/C=C/c1cccc([N+](=O)[O-])c1`: 6.35%.
The same measure for `COc1ccc(CCNCC(O)Cn2ccc3ccccc32)cc1OC` (centres unmarked): 11.7%.
For the compound `CC(C)(C)NC(=O)CN(C(=O)C(=O)Nc1ccc2c(c1)OCCO2)C(C)(C)C`, the “hERG current change (%, negative = inhibition) at 1uM” value was 5.41%.
The same measure for `Cc1nc(Cl)sc1C(=O)Nc1ccc(C(C)(C)C)cc1`: 9.2%; for `COC(=O)c1ccc(OC(C)C(=O)c2ccc(C)cc2)cc1` (centres unmarked): 6.22%.
Consider `Cc1cc(Oc2ccc(N)cn2)cc(C)c1Cl`, for which the “hERG current change (%, negative = inhibition) at 1uM” value is reported as -2.19%.
The same measure for `O=C(CN(c1ccccn1)S(=O)(=O)c1ccc(F)cc1)Nc1ccccc1`: 2.52%; for `Cc1ccc2cc3cc(C(=O)NCCCN4CCCCCC4)oc3nc2c1`: -17.1%.
The same measure for `CN(CC(=O)NC1CCCCCC1)S(=O)(=O)c1ccc(Br)cc1`: 8.35%; for `CCOC(=O)N1CCN(Cc2c(F)cccc2F)CC1`: 17.3%; for `O=C(O)COc1ccc(NC(=O)c2ccc3c(c2)C(=O)N(Cc2ccccc2)C3=O)cc1`: 1.28%.
As to `O=C(CN(C(=O)CNS(=O)(=O)c1ccc(F)cc1)c1ccc(F)cc1)NCc1ccco1`, the “hERG current change (%, negative = inhibition) at 1uM” value is 9.15%.
The same measure for `CCOC(=O)N1CCN(C(=O)COc2ccc(Cl)cc2)CC1`: 6.23%.
The same measure for `CCCCN(C(=O)c1ccc2c(c1)OCO2)c1c(N)n(CC(C)C)c(=O)[nH]c1=O`: 2.16%; for `O=C(NCC(=O)N1CCOCC1)c1ccc(Cl)cc1`: -3.08%.
The same measure for `O=C1CC(C(=O)Nc2ccc(O)c(C(=O)O)c2)C(c2ccccc2)O1` (centres unmarked): -4.73%; for `C[C@@H]1CN(C(=O)c2nc3ccc(Cl)cn3c2CN[C@H]2CCCCNC2=O)C[C@H](C)O1`: 7.56%.
For the compound `CCCCCCC1CCC(c2nc(-c3ccncc3)no2)CC1` (centres unmarked), the “hERG current change (%, negative = inhibition) at 1uM” value was 4.29%.
The same measure for `Cc1cc(SCCOc2ccccc2)nc(N)n1`: 11.6%; for `COc1ccccc1-n1c(=S)sc2c(=O)n(Cc3ccco3)c(SC)nc21`: -12.1%; for `CCOCCCN(CCC#N)C(=O)C1CCN(S(=O)(=O)c2ccc(-n3cnnn3)cc2)CC1`: 2.51%.
On to `N#CC(C#N)=CNc1cccnc1`, for which the “hERG current change (%, negative = inhibition) at 1uM” value amounted to 15.9%.
The same measure for `CSCCC(NC(=O)/C(=C/c1ccco1)NC(=O)c1ccc(Br)o1)C(=O)O` (centres unmarked): 14.2%; for `O=C(O)[C@@H]1CCCN(S(=O)(=O)c2cccc3cccnc23)C1`: 11.2%; for `CCN(CC1CCCN(CCc2cccc(F)c2)C1)C(=O)c1cc2ccccc2o1` (centres unmarked): -64.7%.
The same measure for `O=C(NNC(=S)NCc1ccco1)c1ccc(Cl)s1`: 8.14%; for `CN(C)CCOC(=O)c1ccc2[nH]c3c(c2c1)CSCC3.Cl`: 16.2%.
The same measure for `COc1ccc(C(=O)C(OC(=O)c2ccc(C)c(NC(C)=O)c2)c2ccccc2)cc1` (centres unmarked): -6.04%; for `COc1ccccc1NS(=O)(=O)c1cc(NC(=O)C2CCCC2)ccc1N1CCOCC1`: 10.3%.
Take `Cc1cc(-c2ccc(Cl)cc2)c(C#N)c(N)n1`: the “hERG current change (%, negative = inhibition) at 1uM” value was 0.592%.
For `COc1ccc(S(=O)(=O)Nc2cccc(C(C)=O)c2)cc1Br`, the “hERG current change (%, negative = inhibition) at 1uM” value was determined as 4.98%.
The same measure for `COCCNC(=O)c1ccc(N2CC3CC(C2)c2cccc(=O)n2C3)c([N+](=O)[O-])c1` (centres unmarked): 16.1%; for `CCC(=O)Nc1ccc(C(=O)N/N=C/c2ccc([N+](=O)[O-])cc2)cc1`: 4.58%.
